Test results from publication PMC3562248.
These are yes or no findings as the source states them, for the method shown. Binding seen in cells or lysates may run through a third protein.

How the values were obtained:
[1] = biological target: T1, histone H3 N-terminal tail peptide (aa 1-21), unmodified, C-terminal biotin, P68431; assay: pull-down; about 1 μg biotinylated histone tail peptide on streptavidin agarose beads, about 250 μg HeLa nuclear extract, 20 mM HEPES pH 7.9, 150 mM KCl, 0.1% NP-40, 3 h at 4°C; western blot; only the target purified; conditions: remark: other sources report otherwise
[2] = biological target: T1, histone H3 N-terminal tail peptide (aa …); assay: pull-down; 35S-methionine-labelled in vitro translated protein (TNT reticulocyte lysate, diluted 1:10 with binding buffer) on immobilised H3 tail peptides; autoradiography; only the target purified; conditions: remark: other sources report otherwise

binding [1] | binding [2] | Binder
no binding |  | Sin3A (endogenous, HeLa), Q96ST3 1-1273 (protein, here or on the partner: C-terminal biotin) MKRRLDDQESPVYAAQQRRIPGSTEAFPHQHRVLAPAPPVYEAVSETMQSATGIQYSVTPSYQVSAMPQSSGSHGPAIAAVHSSHHHPTAVQPHGGQVVQSHAHPAPPVAPVQGQQQFQRLKVEDALSYLDQVKLQFGSQPQVYNDFLDIMKEFKSQSIDTPGVISRVSQLFKGHPDLIMGFNTFLPPGYKIEVQTNDMVNVTTPGQVHQIPTHGIQPQPQPPPQHPSQPSAQSAPAPAQPAPQPPPAKVSKPSQLQAHTPASQQTPPLPPYASPRSPPVQPHTPVTISLGTAPSLQNNQPVEFNHAINYVNKIKNRFQGQPDIYKAFLEILHTYQKEQRNAKEAGGNYTPALTEQEVYAQVARLFKNQEDLLSEFGQFLPDANSSVLLSKTTAEKVDSVRNDHGGTVKKPQLNNKPQRPSQNGCQIRRHPTGTTPPVKKKPKLLNLKDSSMADASKHGGGTESLFFDKVRKALRSAEAYENFLRCLVIFNQEVISRAELVQLVSPFLGKFPELFNWFKNFLGYKESVHLETYPKERATEGIAMEIDYASCKRLGSSYRALPKSYQQPKCTGRTPLCKEVLNDTWVSFPSWSEDSTFVSSKKTQYEEHIYRCEDERFELDVVLETNLATIRVLEAIQKKLSRLSAEEQAKFRLDNTLGGTSEVIHRKALQRIYADKAADIIDGLRKNPSIAVPIVLKRLKMKEEEWREAQRGFNKVWREQNEKYYLKSLDHQGINFKQNDTKVLRSKSLLNEIESIYDERQEQATEENAGVPVGPHLSLAYEDKQILEDAAALIIHHVKRQTGIQKEDKYKIKQIMHHFIPDLLFAQRGDLSDVEEEEEEEMDVDEATGAVKKHNGVGGSPPKSKLLFSNTAAQKLRGMDEVYNLFYVNNNWYIFMRLHQILCLRLLRICSQAERQIEEENREREWEREVLGIKRDKSDSPAIQLRLKEPMDVDVEDYYPAFLDMVRSLLDGNIDSSQYEDSLREMFTIHAYIAFTMDKLIQSIVRQLQHIVSDEICVQVTDLYLAENNNGATGGQLNTQNSRSLLESTYQRKAEQLMSDENCFKLMFIQSQGQVQLTIELLDTEEENSDDPVEAERWSDYVERYMNSDTTSPELREHLAQKPVFLPRNLRRIRKCQRGREQQEKEGKEGNSKKTMENVDSLDKLECRFKLNSYKMVYVIKSEDYMYRRTALLRAHQSHERVSKRLHQRFQAWVDKWTKEHVPREMAAETSKWLMGEGLEGLVPCTTTCDTETLHFVSINKYRVKYGTVFKAP
 | no binding | MBD3, in vitro translated, O95983 1-291 (protein, here or on the partner: 35S-methionine label; C-terminal biotin) MERKRWECPALPQGWEREEVPRRSGLSAGHRDVFYYSPSGKKFRSKPQLARYLGGSMDLSTFDFRTGKMLMSKMNKSRQRVRYDSSNQVKGKPDLNTALPVRQTASIFKQPVTKITNHPSNKVKSDPQKAVDQPRQLFWEKKLSGLNAFDIAEELVKTMDLPKGLQGVGPGCTDETLLSAIASALHTSTMPITGQLSAAVEKNPGVWLNTTQPLCKAFMVTDEDIRKQEELVQQVRKRLEEALMADMLAHVEELARDGEAPLDKACAEDDDEEDEEEEEEEPDPDPEMEHV
